# Test results taken from the supplement of paper PMC4967469.
# By IC50 is meant the dose at which the fit gives 50% viability; where the fit passes the top or lowest dose, that dose stands as a limit. AUC sums up the same curve from the lowest dose to the 256-fold higher top dose; the more sensitive the line, the further below 1. For part of these data: Where the top dose is marked as inferred, it was derived from the fitted curves, not read from the paper. For part of these data: Drugs with an entry number were screened twice under separate entries, and the two screens often disagree.
# How the values were obtained:
# Test in all cases: Viability of human cancer cell lines after 72 h of drug (GDSC screen)
# YM201636 = compound: Nc1ccc(C(=O)Nc2cccc(-c3nc(N4CCOCC4)c4oc5ncccc5c4n3)c2)cn1 [YM201636]; details: top dose 5.12 µM; top dose inferred
# Description: (§1)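 Human cancer cell lines in 384-well plates, medium with 10% serum, drug for 72 h over a 256-fold dose range (nine 2-fold or five 4-fold steps up to the top dose). Adherent lines were fixed and stained with the nucleic acid dye Syto60, suspension lines read with resazurin; signal relative to control wells, capped at 0 and 100%. One two-parameter sigmoid per drug and line, fitted in a mixed model over all curves with the slope shared within a line.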
# EX-527 = compound: NC(=O)C1CCCc2c1[nH]c1ccc(Cl)cc21 [EX-527]; details: top dose 20 µM
# Description: as §1
# AS601245 = compound: N#CC(c1ccnc(NCCc2cccnc2)n1)c1nc2ccccc2s1 [AS601245]; details: top dose 8 µM; top dose inferred
# Description: as §1
# AZD6244 = compound: Cn1cnc2c(F)c(Nc3ccc(Br)cc3Cl)c(C(=O)NOCCO)cc21 [AZD6244]; details: top dose 4 µM; screen: GDSC drug entry 1498; top dose inferred
# Description: as §1
Cell Line,AUC (YM201636),IC50 (YM201636),AUC (EX-527),IC50 (EX-527),AUC (AS601245),IC50 (AS601245),AUC (AZD6244),IC50 (AZD6244)
"NCI-H2172 (non-small cell lung carcinoma, adherent)",0.757,2.36 µM,0.972,> 20 µM,0.696,2.19 µM,0.968,> 4 µM
"NCI-H2228 (lung adenocarcinoma, adherent)",0.819,> 5.12 µM,0.977,> 20 µM,0.735,3.37 µM,0.89,> 4 µM
"NCI-H2291 (lung adenocarcinoma, adherent)",0.983,> 5.12 µM,0.976,> 20 µM,0.984,> 8 µM,0.48,0.216 µM
"NCI-H2342 (lung adenocarcinoma, adherent)",0.974,> 5.12 µM,0.984,> 20 µM,0.76,3.09 µM,0.975,> 4 µM
"NCI-H2347 (lung adenocarcinoma, adherent)",0.915,> 5.12 µM,0.978,> 20 µM,0.876,> 8 µM,0.57,0.404 µM
"NCI-H2405 (lung adenocarcinoma, adherent)",0.957,> 5.12 µM,0.985,> 20 µM,0.803,4.47 µM,0.859,3.9 µM
"NCI-H2444 (non-small cell lung carcinoma, adherent)",0.974,> 5.12 µM,0.988,> 20 µM,0.923,> 8 µM,0.929,> 4 µM
"NCI-H2452 (mesothelioma, adherent)",0.973,> 5.12 µM,0.984,> 20 µM,0.977,> 8 µM,0.816,2.77 µM
"NCI-H3122 (lung adenocarcinoma, adherent)",0.941,> 5.12 µM,0.983,> 20 µM,0.728,2.28 µM,0.946,> 4 µM
"NUGC-3 (stomach, adherent)",0.948,> 5.12 µM,0.984,> 20 µM,0.889,> 8 µM,0.767,1.66 µM
"NUGC-4 (stomach, adherent)",0.783,2.16 µM,0.983,> 20 µM,0.665,1.44 µM,0.323,0.08 µM
"NY (osteosarcoma, adherent)",0.984,> 5.12 µM,0.987,> 20 µM,0.776,3.14 µM,0.985,> 4 µM
"OAW-28 (ovary, adherent)",0.866,> 5.12 µM,0.983,> 20 µM,0.891,> 8 µM,0.863,> 4 µM
"OAW-42 (ovary, adherent)",0.975,> 5.12 µM,0.971,> 20 µM,0.741,2.62 µM,0.834,2.91 µM
"OCUM-1 (stomach, adherent)",0.987,> 5.12 µM,0.981,> 20 µM,0.828,5.69 µM,0.217,0.0333 µM
"OE19 (oesophagus, adherent)",0.982,> 5.12 µM,0.978,> 20 µM,0.787,3.97 µM,0.907,> 4 µM
"OE21 (oesophagus, adherent)",0.93,> 5.12 µM,0.975,> 20 µM,0.841,> 8 µM,0.732,1.49 µM
"OE33 (oesophagus, adherent)",0.792,2.82 µM,0.981,> 20 µM,0.815,5.5 µM,0.888,> 4 µM
"OSC-19 (head and neck, adherent)",0.939,> 5.12 µM,0.978,> 20 µM,0.839,5.81 µM,0.925,> 4 µM
"OSC-20 (head and neck, adherent)",0.949,> 5.12 µM,0.979,> 20 µM,0.799,4.69 µM,0.872,> 4 µM
"OVCAR-3 (ovary, adherent)",0.985,> 5.12 µM,0.983,> 20 µM,0.877,> 8 µM,0.981,> 4 µM
"OVCAR-5 (ovary, adherent)",0.966,> 5.12 µM,0.982,> 20 µM,0.863,> 8 µM,0.453,0.182 µM
"OVCAR-8 (ovary, adherent)",0.811,2.37 µM,0.988,> 20 µM,0.818,3.92 µM,0.937,> 4 µM
"OVISE (ovary, adherent)",0.886,> 5.12 µM,0.981,> 20 µM,0.867,> 8 µM,0.836,> 4 µM
"OVKATE (ovary, adherent)",0.724,2.18 µM,0.973,> 20 µM,0.923,> 8 µM,0.849,> 4 µM
"OVMIU (ovary, adherent)",0.778,2.62 µM,0.981,> 20 µM,0.702,2.16 µM,0.826,3.25 µM
"OVTOKO (ovary, adherent)",0.949,> 5.12 µM,0.976,> 20 µM,0.627,1.23 µM,0.824,3.28 µM
"PA-TU-8902 (pancreas, adherent)",0.93,> 5.12 µM,0.95,> 20 µM,0.937,> 8 µM,0.397,0.124 µM
"PA-TU-8988T (pancreas, adherent)",0.961,> 5.12 µM,0.971,> 20 µM,0.839,5.47 µM,0.588,0.436 µM
"PANC-02-03 (pancreas, adherent)",0.851,> 5.12 µM,0.981,> 20 µM,0.962,> 8 µM,0.596,0.483 µM
